# Source: PubChem BioAssay AID485344 (National Center for Advancing Translational Sciences (NCATS), 2010)
# Values joined by “and” are separate entries in the source; they are usually repeats but may differ in a detail not shown here. Equal entries are not always repeated. In all, about 340,000 compounds went through this assay and about 6,900 (2%) were called active. No stated cut-off is given here; in the data, active means inhibition above about 30%; inactive means below that, where a call was filed. The list shows a part of the results, in another mix than the full data. The source gives no active or inactive call for entries shown without one.
# Molecular target: D(2) dopamine receptor (Homo sapiens) (UniProt P14416)
# Assay: HTS Assay for Allosteric Antagonists of the Human D2 Dopamine Receptor: Primary Screen for Antagonists; further: 0% is about no effect
# Details: HEK293 TREx D2 cells, calcium flux, dopamine EC80; at 10 µM; stronger effect = higher value
# Procedure, shortened: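 Calcium flux kinetic readout in an inducible HEK293 TREx D2 line plated overnight at 30 C. After 180 s compound exposure, an EC80 dopamine challenge follows with another 180 s kinetic read to detect antagonism.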
# Sequence of UniProt P14416 (P14416 whole entry, looked up): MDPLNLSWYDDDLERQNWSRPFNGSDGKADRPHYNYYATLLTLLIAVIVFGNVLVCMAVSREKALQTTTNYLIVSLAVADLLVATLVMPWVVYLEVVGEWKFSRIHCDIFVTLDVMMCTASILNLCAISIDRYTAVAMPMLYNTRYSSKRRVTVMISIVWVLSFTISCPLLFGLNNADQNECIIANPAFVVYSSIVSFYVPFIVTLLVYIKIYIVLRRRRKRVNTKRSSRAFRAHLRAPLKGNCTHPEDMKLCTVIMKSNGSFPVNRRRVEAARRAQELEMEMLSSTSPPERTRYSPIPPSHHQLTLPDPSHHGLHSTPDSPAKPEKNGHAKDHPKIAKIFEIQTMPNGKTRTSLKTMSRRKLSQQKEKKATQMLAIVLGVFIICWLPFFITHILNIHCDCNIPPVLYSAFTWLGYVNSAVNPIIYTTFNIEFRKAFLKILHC
row,SMILES,inhibition
1,CC(C)OC(=O)CSc1nnc2c3ccccc3n(C)c2n1,active: 37.2%
2,CCCOc1ccc(C(=O)Nc2nonc2-c2ccc(OCC)cc2)cc1,-4.11%
3,COc1ccc(CNC(=O)C2=C(C)C(=O)OC23CCCCC3)cc1OC,8.17%
4,O=C(c1ccc(F)cc1F)N1CCC(c2nc(-c3ccc(S(=O)(=O)N4CCCC4)cc3)no2)CC1,5.12%
5,Cc1cc(C)cc(NC(=O)CSc2nc3c([nH]c4ccccc43)c(=O)n2-c2ccc(F)cc2)c1,-4.95%
6,CCOc1ccc(-c2cc(NC(=O)c3cccc(Cl)c3)c(C(=O)OC)s2)cc1,11.3%
7,O=C(Nc1ccc(C(=O)N2CCCCC2)cc1)c1nsc2ccccc12,-2.58%
8,COc1cc(Cl)c(C)cc1NC(=O)CCc1c(C)nc2c3cccnc3nn2c1C,-1.67%
9,CS(=O)(=O)c1ccccc1-c1nnc(NC(=O)c2ccc3c(c2)OCCO3)o1,-6.29%
10,COc1ccc(CNC(=O)CSc2n[nH]c(-c3ccc(F)cc3)n2)cc1,-21.8%
11,O=C(Nc1nc2n(n1)C(c1ccccc1)C=C(c1ccccc1)N2)c1ccccc1 (stereo not drawn),-19.7%
12,COc1ccc(NC(=O)c2nnn(CC(=O)Nc3c(C)cc(C)cc3C)c2N)cc1OC,3.52%
13,Cc1ccc(C)c(CN2C(=O)c3ccccc3S(=O)(=O)c3ccc(C(=O)Nc4cc(F)ccc4F)cc32)c1,-1.13%
14,COc1ccc(CNC(=O)C(CCSC)NS(=O)(=O)c2ccc3c(c2)oc(=O)n3C)cc1 (stereo not drawn),6.82%
15,COc1ccc(CNC(=O)CN(c2ccc(C)cc2)S(=O)(=O)c2c(C)noc2C)cc1,18.3%
16,Cc1ccc(OCCCCn2cnc3ccccc32)cc1,3.85%
17,CCc1cccc(C)c1NC(=O)c1ccc(CN2CCc3ccccc3C2)cc1,active: 55.1%
18,CCCN(CCC)CCNC(=O)CN1C(=O)COc2ccc(S(=O)(=O)N3CCOCC3)cc21,-9.47%
19,CCC(CC)C(=O)Nc1nnc(S(=O)(=O)N2CCc3ccccc32)s1,12.3%
20,O=C(NCc1ccccc1Cl)C1CCN(C(=O)N2CCOc3ccccc32)CC1,-7.59%
21,Cc1cccc(OCC(=O)NCCc2nc3ccccc3[nH]2)c1C,11.4%
22,[O-][N+]1=c2ccc(Nc3ccccc3)cc2=NC12CCCCC2,active: 32.5%
23,CCOc1ccc(-n2nc(CO)c(C(=O)NCc3ccccn3)n2)cc1,-2.39%
24,CCCOc1ccc(C(=O)NC2CCSc3ccccc32)cc1 (stereo not drawn),active: 36%

row,SMILES,inhibition
1,Cc1cccnc1NC(=O)c1ccc(Cl)c(S(=O)(=O)N2CCCCCC2)c1,active: 56.1%
2,COc1ccc(Cn2c(C)nc3oc4cc(OC)ccc4c(=O)c3c2=O)cc1,active: 71.7%
3,COC(=O)c1ccccc1NC(=O)c1cnn(-c2ccc(F)cc2)c1-n1cccc1,-4.38%
4,Cc1ccc(CN(C(=O)COc2ccccc2[N+](=O)[O-])c2ccccn2)cc1,-3.03%
5,COc1ccc(C(=O)NCCSCc2cccc(Cl)c2)cc1OC,active: 32%
6,CCOc1ccc(NC(=O)C2CCCN(c3cnccn3)C2)cc1 (stereo not drawn),-12.4%
7,CCOc1ccc(Cl)cc1CNCCCSc1nnnn1C,-2.82%
8,COC(=O)CSc1nc2sc3c(c2c(=O)n1-c1ccc(C)cc1)CC(C(C)C)OC3 (stereo not drawn),6.71%
9,CCN(CC)S(=O)(=O)c1ccc2c(c1)N(CC(=O)Nc1ccc(OC)cc1)C(=O)CS2,7.16%
10,Cc1ccccc1CNC(=O)c1oc2c(c1C)-c1nn(Cc3ccc(Cl)cc3)cc1CC2,4.13%
11,Cc1ccc(C(=O)NCC(=O)OCc2cc(=O)n3ccsc3n2)cc1,-15.6%
12,COc1cc(F)ccc1CN1CCC(C(=O)Nc2ccc(Oc3ccccc3)nc2)CC1,active: 39.6%
13,CCc1ccc(NC(=O)CSc2ccc3nc(-c4ccc(OC)cc4)cn3n2)cc1,0.248%
14,CC(C)Cn1c(C2CC(=O)N(c3ccccc3Cl)C2)nc2ccccc21 (stereo not drawn),0.315%
15,O=C(Cn1nc(-c2ccccc2)nc(Cc2ccccc2)c1=O)Nc1ccc(Cl)cc1,-17.7%
16,Cc1oc(-c2ccc(C(=O)NCCN(C)C)cc2)nc1CS(=O)(=O)c1ccccc1,8.72%
17,Cc1cccc(NC(=O)Cn2nnc(C(=O)NCc3ccco3)c2N)c1,12.5% and active: 34.4%
18,COc1ccc(Br)cc1C(=O)Nc1ccc(-c2nc3ncccc3o2)cc1C,-3.2%
19,Cc1cccc(-n2c(N)cc(=O)nc2SCC(=O)Nc2ccc(F)cc2)c1C,-4.83%
20,COc1ccc(Br)cc1/C(C)=N/NC1=NCCN1,active: 32.6%
21,O=C(Nc1ccc(Cl)cc1Cl)c1cc(S(=O)(=O)N2CCCCCC2)ccc1F,-1.65%
22,Cc1cc(C)cc(C(=O)n2nc(C)c(S(=O)(=O)N3CCCCCC3)c2C)c1,-25.2%
23,CCCCS(=O)(=O)c1oc(-c2cccs2)nc1S(=O)(=O)c1ccc(F)cc1,-1.67%
24,Cc1c(C(=O)N2CCN(c3ccc(F)cc3)CC2)sc2nc3n(c(=O)c12)CCC3,-8.81%
